The campaign covered roughly 310,000 compounds. About 18,000 (5.8%) were called active. Inconclusive results, whose numbers are uncertain, are shown with a selection of clear calls. The call rests on the fitted dose curve; in most records, active means well fitted inhibition curve with a large enough effect; inconclusive means small, poorly fitted or top-dose-only effect, or another doubt; inactive means no such curve, though single readings can be large or run the other way. No potency is given beside an inconclusive call; the fits are too rough.
Experiment: Primary qHTS for delayed death inhibitors of the malarial parasite plastid, 48 hour incubation
Conditions: P. falciparum luciferase growth in erythrocytes; series mostly up to 28.7 µM
In short: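 Here the parasites carry a stable luciferase gene and grow inside erythrocytes in Albumax-based RPMI medium with compound for one erythrocytic cycle. Activity is scored as loss of luminescent signal.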
In the case of `COc1cc(OC)c(-c2nc3cnccc3n2C)cc1OC`, the Potency is reported as “inactive”.
For `O=C(NCCC1=CCCCC1)C(=O)NCC1OCCCN1S(=O)(=O)c1cc(F)ccc1F` (stereo unspecified), the Potency was inconclusive [inhibitor, partial curve, poor fit].
With `Cc1c(C(=O)C(=O)NCCCn2ccnc2)c2ccccc2n1C` the Potency was inconclusive [inhibitor, partial curve, poor fit].
With `COc1ccccc1CNC(=O)c1cccc(-c2ccc(C)c3ccccc23)n1` the Potency was inconclusive [inhibitor, single point].
With `c1ccc2sc(SCc3ccc(-c4nnco4)cc3)nc2c1` the Potency was “inactive”.
In the case of `Cc1cc(NC(=O)CSc2ccc3c(c2)OCCO3)no1`, the Potency is reported as inconclusive [inhibitor, single point].
In the case of `Cc1cccc(S(=O)(=O)N2CN(Cc3ccco3)c3nc4ccccc4nc32)c1`, the Potency is reported as inconclusive [inhibitor, single point].
With `COc1ccc(CCNC(=O)c2nnn(CC(=O)Nc3ccccc3)c2N)cc1OC` the Potency was inconclusive [inhibitor, partial curve].
For `CN(C(=O)C1CCN(c2ncnc3c2nc2n3CCCCC2)CC1)C1CCCCC1`, the Potency was “inactive”.
With `CCOC(=O)c1ccc2nc(C)c(CCC(C)=O)c(Cl)c2c1` the Potency was “inactive”.
With `COC(=O)CN(Cc1ccco1)S(=O)(=O)c1ccccc1` the Potency was inconclusive [inhibitor, single point].
In the case of `O=C(NCCO)C1COc2ccccc2O1` (stereo unspecified), the Potency is reported as “inactive”.
With `CC1CCN(S(=O)(=O)c2cccc(C(=O)Nc3nncs3)c2)CC1` the Potency was “inactive”.
In the case of `COc1nc(-c2ccccc2)ccc1-c1noc(-c2ccc(F)cc2)n1`, the Potency is reported as “inactive”.
In the case of `Brc1cc2c(cc1-c1nc3ccccc3s1)OCO2`, the Potency is reported as “inactive”.
For `N#Cc1cccc(NC(=O)Cn2cnc(S(=O)(=O)N3CCCCC3)c2)c1`, the Potency was inconclusive [inhibitor, single point].
In the case of `Cc1ccc(C)c(N2CCN(C(=O)c3cc4ccccn4n3)CC2)c1`, the Potency is reported as inconclusive [inhibitor, single point].
For `N#CC1(NC(=O)CN2C(=O)c3ccc([N+](=O)[O-])cc3C2=O)CCCCC1`, the Potency was “inactive”.
In the case of `CCc1ccc(-c2cc3c(=O)n(CC(=O)N4CCCC4)nc(C)n3n2)cc1`, the Potency is reported as “inactive”.
For `CC1C(=O)C(C)C(c2cccc(Br)c2)NC1c1cccc(Br)c1` (stereo unspecified), the activity change, negative = inhibition was inactive: -4.36% [at 0.00184 µM].
With `CCOC(=O)C1(N(CC)CC)Sc2cc(C)ccc2NC1=O` (stereo unspecified) the Potency was inconclusive [inhibitor, partial curve, poor fit].
For `N/C(=N\OC(=O)c1cccc2ccccc12)c1ccc(Br)cc1`, the Potency was inconclusive [inhibitor, single point].
With `O=C(NCCN1CCN(Cc2ccccc2)CC1)c1ccc(CS(=O)(=O)c2ccc(Br)cc2)o1` the Potency was inconclusive [inhibitor, partial curve].
With `O=C(Nc1cccc(S(=O)(=O)N2CCCCC2)c1)c1ccccc1NS(=O)(=O)c1ccc(F)cc1` the Potency was active: 11.7 µM.
For `O=C(C1CCOCC1)N1CCCC(N2CCN(c3ccc(F)cc3)CC2)C1` (stereo unspecified), the Potency was “inactive”.
In the case of `COc1cccc(CNC(=O)C2CCN(S(=O)(=O)c3ccc4c(c3)CC(C)N4C(=O)C3CC3)CC2)c1` (stereo unspecified), the Potency is reported as inconclusive [inhibitor, partial curve].
With `Cc1ccc(C(=O)c2coc3ccc(O)c(CN4CCN(C)CC4)c23)cc1` the Potency was active: 3.7 µM.
In the case of `O=C(CCC1CCCN(C(=O)c2ccc3c(c2)OCO3)C1)NCc1ccc(F)c(F)c1` (stereo unspecified), the Potency is reported as inconclusive [inhibitor, single point].
For `CC(C)=NNc1nc2c(c(=O)n(C)c(=O)n2C)n1CCc1ccccc1`, the Potency was inconclusive [inhibitor, partial curve, poor fit].
With `COC(=O)c1ccccc1NC(=O)Cc1ccccc1OC` the Potency was inconclusive [inhibitor, single point].
For `Cc1ccc(NC(=O)c2oc3ccc(S(=O)(=O)N4CCC5(CC4)OCCO5)cc3c2C)cc1C`, the Potency was active: 13.1 µM.
With `CCC(=O)N1CCN(c2nc(CC)nc3sc4c(c23)CCCC4)CC1` the Potency was inconclusive [inhibitor, partial curve].
In the case of `CN(C)C(=O)CCc1nc2sc3c(c2c(=O)[nH]1)CCCC3`, the Potency is reported as “inactive”.
For `CCOC(=O)C1(CC2CC2)CCN(S(=O)(=O)C[C@]23CC[C@H](CC2=O)C3(C)C)CC1`, the Potency was inconclusive [inhibitor, partial curve].
For `O=C(NC1(O)C(=O)c2ccccc2C1=O)c1c(Cl)cccc1Cl`, the Potency was active: 2.94 µM.
With `COc1ccc(C(=O)N[C@H](C(=O)NCc2ccccc2)C(C)C)cc1` the Potency was inconclusive [inhibitor, full curve, poor fit].

— PubChem BioAssay AID504832 (National Center for Advancing Translational Sciences (NCATS), 2011)
On the % scale 0 is the no-effect control and ±100 the full control effect; potency means the concentration at half of the fitted maximal effect; tags describe the fitted curve by direction and shape.
